Measurements: ChEMBL document CHEMBL1157539, “Thousands of chemical starting points for antimalarial lead identification” (Nature, 2010)
“And” between values parts separate entries of the source, which are not always exact repeats. Equal entries are not always repeated. In all, about 13,000 compounds were measured (“IFI”: median about 4, highest 2% from about 17 on). This is one part of the list.

assay: GSK_TCMDC: Inhibition Frequency Index (IFI). The number of non-kinase HTS assays where a compound showed > 50 % inhibition, expressed as a percentage of the number of such assays in which the compound was tested (-0 is zero); format: functional

Row | Compound | IFI
1 | Oc1cc2ccccc2cc1CNC1CCCCC1 | 0%
2 | COc1ccc(OCCn2cc(C(=O)c3ccco3)c3ccccc32)cc1 | 5.61%
3 | OC1CCCN(Cc2ccc(-c3cccc(-c4nc5ccccc5[nH]4)c3)cc2)C1 (configuration not stated) | -0%
4 | O=c1[nH]ccc2nc(N[C@@H]3CCNC3)nc(Nc3ccc4c(c3)S(=O)(=O)CC4)c12 | 0%
5 | Cc1cccc2nc(-c3ccc(-c4cccc(CNCc5ccc(S(C)(=O)=O)cc5)c4)s3)[nH]c12 | 4.81%
6 | Cc1nc2c(c(O)c1Cl)-c1ccc(Oc3cccc(C(F)(F)F)c3)cc1C2=O | 11.9% and 13.9%
7 | CC(C)(C)c1ccc(NC(=O)c2ccc(CN3CCCN(Cc4cccc(F)c4)CC3)cc2)cc1 | 14.6%
8 | CC(Cc1ccc(NC(=O)c2ccc(CNCCc3ccccc3)cc2)cc1)NCCc1cccc(Cl)c1 (configuration not stated) | 9.86%
9 | CC(C)CCNC(=O)C1Cc2c([nH]c3ccc(Br)cc23)C2(CCN(CCc3ccccc3)CC2)N1 (configuration not stated) | 5.67%
10 | CNC(=O)c1cnc(Nc2ccc(N3CCN(C)CC3)cc2)nc1Nc1cccc(OC)c1 | 4.48%
11 | CCCCCCN(CCCCCC)CC(O)c1cc(-c2ccc(Cl)cc2)nc2c(C)cc(C)cc12 (configuration not stated) | 3.55%
12 | Cc1ccc2[nH]c(C)c(Br)c(=O)c2c1 | 0.89%
13 | Cc1nc(NCc2ccccc2)cc(NCC(O)c2ccc(O)cc2)n1 (configuration not stated) | -0%
14 | Cc1n[nH]c(C)c1C1CCN(CC2CCC(NC(=O)/C=C/c3ccc(Cl)c(Cl)c3)CC2)CC1 (configuration not stated) | 0.72%
15 | CN1CCN(Cc2ccc(OCc3cccc(COc4ccc(CN5CCN(C)CC5)cc4I)c3)c(I)c2)CC1 | 10.5%
16 | Cc1cccc2c3c([nH]c12)C1(CCN(Cc2ccccc2)CC1)NC(C(=O)NCc1ccccc1)C3 (configuration not stated) | 2.27%
17 | CCN(CC)C(=O)C(=O)c1c[nH]c2ccc(Cl)cc12 | -0%
18 | O=C(NC1CCCCC1)c1csc(C2CCCN(C(=O)c3ccc(O)c(-c4cccc(C(F)(F)F)c4)c3)C2)n1 (configuration not stated) | 3.01%
19 | COc1cccc(-c2csc(C(=O)NC3CCCCN(Cc4ccc(C(C)(C)C)cc4)C3)c2)c1 (configuration not stated) | 3.64%
20 | CC(C)Nc1ccc(Nc2ccnc3cc4ccccc4cc23)cc1 | 8.82%
21 | Cc1ccccc1NC(=O)NC1CCN(CCCCCNC(=O)/C=C/c2ccc(Cl)c(Cl)c2)CC1 | 2.68%
22 | CCC(=O)Nc1ccc(C(O)CN2CCC3(C=Cc4ccccc4O3)CC2)cc1 (configuration not stated) | 4.76%
23 | CCOc1ccc2c(=NN=Cc3cccc(F)c3)cc(C)[nH]c2c1 | 1.35%

Row | Compound | IFI
24 | COc1cc2nc(N3CCN(c4cc(C)ccc4C)CC3)nc(N)c2cc1OC | 14%
25 | Cc1c(CN2CCC(N3CCC(C(=O)NC4CC4)CC3)CC2)[nH]c2c(Cl)cccc12 | -0%
26 | Clc1cc(Cl)c2cc(CNCCCNc3ccc4ccccc4n3)[nH]c2c1 | 14.8%
27 | c1cc(OCCN2CCCC2)ccc1CNC1CCN(CC2CCCCC2)CC1 | 4%
28 | COCCOc1cccc(CN2CCC(c3cc4nc(C)cc(C(F)(F)F)n4n3)C2)c1 (configuration not stated) | 6.98%
29 | Cc1cc(NC(=O)NCCN2CCC(NS(=O)(=O)c3ccc(Br)cc3)C2)c2ccccc2n1 (configuration not stated) | 1.75%
30 | COc1cc(O)c2c(=O)c(OC)c(-c3cccc(Cl)c3OC3O[C@H](CO)[C@@H](O)[C@H](O)[C@H]3O)oc2c1OC (some centres not stated) | 0%
31 | CC(C(=O)NC1CCN(c2ccnc(Nc3ccc(F)cc3)n2)C1)c1ccc(Cl)cc1 (configuration not stated) | 10.4%
32 | Cc1cc(C(=O)Nc2ccc3c(c2)CCN3C2CCN(Cc3cc(F)cc(F)c3F)C2)no1 (configuration not stated) | 3.13%
33 | COc1cccc(-c2cnc(N)c(-c3nc4cc(Cl)c(F)cc4[nH]3)c2)c1 | 3.08%
34 | CC(=O)Nc1ccc(Nc2c3ccccc3nc3ccccc23)cc1 | 6.25%
35 | O=C(Nc1ccc(-c2nc3ccccc3[nH]2)cc1)c1ccc([N+](=O)[O-])s1 | 1.43%
36 | CC(C)(C)c1ccc2[nH]c(-c3ccc(/C=C/C(=O)NC4CCN(Cc5ccccc5)CC4)cc3)nc2c1 | 5.19%
37 | COc1ccc(NC(=O)C2c3ccccc3C(=O)N(C3CCCC3)C2c2cccs2)cc1OC (configuration not stated) | 4.76%
38 | CCCc1ccc(Nc2nc(C)cc(N(CC)CCCN3CCCCC3)n2)cc1 | 13.9%
39 | COc1ccc(-c2nc(-c3ccc([N+](=O)[O-])cc3)no2)cc1OC | 0%
40 | C#CCNC(=O)c1ccc(-c2ccnc(Nc3cccc(CCCN4CCOCC4)c3)n2)s1 | 9.68%
41 | Cc1[nH]c(C)c(-c2ccc(-c3ccc(OCC(F)(F)F)cc3)nc2)c(=O)c1Cl | -0%
42 | O=C(NCc1ccc(Cl)c(Cl)c1)c1ccc(-c2nc3ccc(Cl)cc3[nH]2)cc1 | 2.27%
43 | CCCNc1ccc2nccc(CCN3CCC(NCc4ccc5c(n4)NC(=O)CS5)CC3)c2n1 | 5.15%
44 | Cc1cc(C2CCN(CCCCNC(=O)c3ccc(-c4ccc(C(F)(F)F)cc4)cc3)CC2)c(C)cc1OCC(N)=O | 5.5%
45 | Cc1ccc(F)c(OCC2CCCN(c3ccc(C(=O)NC4CC4)cn3)C2)c1 (configuration not stated) | 0%
46 | Cc1cccc2nc(-c3ccc(-c4ccc(NC(=O)Nc5cccc(C#N)c5)cc4)s3)[nH]c12 | 3%

Row | Compound | IFI
47 | Cc1ccc(Nc2nccc(NCC(O)c3cccc(F)c3)n2)cc1 (configuration not stated) | 9.71%
48 | CC(Nc1cc(-c2ccccn2)nc(-c2ccccn2)n1)c1ccccc1 (configuration not stated) | 14%
49 | COc1ccc(NC(=O)Nc2cccc(-c3cccc(-c4nc5ccccc5[nH]4)c3)c2)cc1 | 3.09%
50 | CN(C)S(=O)(=O)c1ccc(Nc2nc(NCCC3C=NC=N3)nc3cc[nH]c(=O)c23)cc1 (configuration not stated) | 0%
51 | CCOc1c(Br)cc(Cl)cc1CNCCCNc1nc2ccccc2[nH]1 | 5.71%
52 | Cc1nc(C)c(-c2ccc(Oc3cccc(OC(F)(F)F)c3)cc2)c(O)c1Cl | 0%
53 | CC[C@H]1CN2CCc3c([nH]c4ccccc34)[C@@H]2C[C@@H]1CC1c2cc(OC)c(OC)cc2CCN1C (some centres not stated) | 6.87%
54 | Cc1ccc(CCC(C)NCC(O)c2cccc(C(F)(F)F)c2)cc1 (configuration not stated) | 3.62%
55 | O=[N+]([O-])c1ccc(C2=NN(S(=O)(=O)c3c(Cl)cc(Cl)cc3Cl)CCCC2)cc1 | 2.31%
56 | CSc1cccc(NC(=O)c2cc3ccccc3oc2=O)c1 | 0.72%
57 | CN(CC(=O)Nc1ccc(F)cc1)C(=O)c1ccc(-c2ccc(F)cc2)o1 | 0%
58 | CCN(CC)c1ccc(C(=O)Cn2ccc(=N)cc2)cc1 | 2.24%
59 | CSc1ccc(CN2CCC(CNC(=O)c3cc(-c4ccccc4F)cs3)C2)cc1 (configuration not stated) | 12%
60 | COc1cc(OC)cc(-c2nn(-c3ccc([N+](=O)[O-])cc3Cl)c(=S)n2Cc2ccco2)c1 | 2.03%
61 | CCC(CC)(CCC#N)CN(C[C@@H](O)[C@H](Cc1ccccc1)NC(=O)OC(C)(C)C)S(=O)(=O)c1ccc(OC)cc1 | 2.16%
62 | Cc1nc(C)c(CC(=O)Nc2cccc(-c3cccc(-c4nc5cccc(C)c5[nH]4)c3)c2)s1 | 14.9%
63 | Cc1ccc(NC(=O)c2ccc3ncccc3c2)cc1OC1CCN(Cc2ccco2)C1 (configuration not stated) | 1.69%
64 | CN(C)[C@@H]1C(O)=C(C(N)=O)C(=O)[C@@]2(O)C(O)=C3C(=O)c4c(O)ccc(C#Cc5ccccn5)c4C[C@H]3C[C@@H]12 | 14.7%
65 | O=C(Cc1ccccc1)NC1CCN(c2ccnc3cc(Cl)ccc23)C1 (configuration not stated) | -0%
66 | CN(C)CCN(C)Cc1ccc(-c2ccc3c(Nc4ccc(F)cc4Cl)ccnc3c2)o1 | 9.86%
67 | O=C(Nc1cccc(CN2CCCN(Cc3ccccc3)CC2)c1)c1cc2ccccc2s1 | 7.63%
68 | N=C(N)Nc1ccc(C(=O)O)c(O)c1 | -0%
69 | CC(=O)N(C)c1cccc(CNc2cc(C)nc(Nc3ccc(C)cc3)n2)c1 | 4.35%

Row | Compound | IFI
70 | CNc1ccc(CNCc2ccc(-c3ccc(-c4nc5cccc(C)c5[nH]4)s3)cc2)cc1 | 10.2%
71 | Cc1nc(C)c(CC(=O)Nc2ccc(-c3cccc(-c4nc5cccc(C)c5[nH]4)c3)cc2)s1 | 13%
72 | CN1CCC(C(=O)Nc2ccc(-c3cccc(-c4nc5cc(C(F)(F)F)ccc5[nH]4)c3)cc2)CC1 | 6.9%
73 | O=C(Nc1cccc(-c2nn3ccccc3c2-c2ccnc(Nc3ccc(Cc4ccncc4)cc3)n2)c1)c1c(F)cccc1F | 2.86%
74 | CN(C)CCNCc1ccc(-c2ccc(-c3nc4cc(F)ccc4[nH]3)cc2)cc1 | 6.93%
75 | CCC(C)OC(=O)C1=C(C)NC2=C(C(=O)CC(c3ccc(OC)c(OC)c3)C2)C1c1cccc(O)c1 (configuration not stated) | 1.99%
76 | CC(Nc1nc(Nc2ccc(F)cc2)nc(SCC(N)=O)n1)c1ccccc1 (configuration not stated) | 4%
77 | CC(CCCCC(=O)Nc1ccc(C(F)(F)F)cc1)NCC(O)c1cccc(Cl)c1 (configuration not stated) | 15%
78 | O=C(Nc1cc(Cl)cc(Cl)c1)Nc1ccnc2ccccc12 | 7.19%
79 | COc1ccc(CNCc2ccc(F)cc2)cc1-c1ccc(OC)c(S(=O)(=O)NCCN2CCCC2)c1 | 7.69%
80 | Cc1cccc(C(=O)N2CCN(Cc3cccc(NC(=O)c4ccco4)c3)CC2)c1 | 0.76%
81 | COc1c(F)ccc2ncc(Cl)c(CCN3CCC(NCc4ccc5c(n4)NC(=O)CS5)CC3)c12 | 4.41%
82 | Cc1ccc(CNC(=O)[C@H](Cc2ccccc2)Nc2ccnc(NCC3CCCCC3)n2)cc1 | 11.1%
83 | CN(C)CCOC(=O)C1(O)CCC2CC1C2(C)C (configuration not stated) | 0.74%
84 | c1ccc2nc(NCCCCCCCCNc3ccc4ccccc4n3)ccc2c1 | 8.46%
85 | Cc1cc(OCC2CCN(c3ccc(C(=O)NC4CC4)cn3)CC2)ccc1F | 2%
86 | CNc1ccc(CNCc2ccc(-c3ccc(-c4nc5cc(C(F)(F)F)ccc5[nH]4)cc3)cc2)cc1 | 14.1%
87 | CC(C)(C)c1ccc(CN2CCC(CNC(=O)c3cc(-c4ccccc4Cl)cs3)C2)cc1 (configuration not stated) | 12.5%
88 | CCOC(=O)c1c(CNc2ccncc2)n(C)c2cc(Br)c(OC(C)=O)cc12 | 0.74%
89 | Cc1ccc(C)c(NC(=O)NCCNc2ccnc(Nc3ccc(F)cc3)n2)c1 | 6.06%
90 | COc1ccc(CCNC(C)Cc2ccc(C(=O)Nc3ccc(CC(C)NCCc4cccc(Cl)c4)cc3)cc2)cc1 (configuration not stated) | 9.86%
91 | Cc1ccc(Cn2ccc3c4c(N)nc(N)nc4ccc32)cc1 | 8.53%
92 | Cc1nn(-c2ccccc2)c2c1C(c1ccc(C(C)C)cc1)N1C(=N2)N(Cc2ccccc2)c2ccccc21 (configuration not stated) | 1.43%
